Measurements: the antibiotic and cytotoxicity screens of Wong et al. (2023)
The list shows a part of the results.

Legend:
[1] = system: HSkMC (human skeletal muscle cells); test: cytotoxicity call (relative viability < 0.9); settings: 10 µM
[2] = system: HepG2; test: cytotoxicity call (relative viability < 0.9); settings: 10 µM
[3] = system: S. aureus RN4220; test: growth inhibition call (relative growth <= 0.2); settings: 50 µM

C[C@H](CO)N1C[C@H](C)[C@@H](CN(C)Cc2cccc(O)c2)OCc2ccccc2-c2c(n(C)c3ccccc23)C1=O
cytotoxicity call [1]: inactive | cytotoxicity call [2]: inactive | growth inhibition call [3]: inactive

COc1ccc(S(=O)(=O)N(C)C[C@@H]2Oc3cc(C4=CCCC4)ccc3S(=O)(=O)N([C@H](C)CO)C[C@H]2C)cc1
cytotoxicity call [1]: inactive | cytotoxicity call [2]: inactive | growth inhibition call [3]: inactive

C[C@@H]1CN([C@@H](C)CO)C(=O)c2cccc(NC(=O)c3ccncc3)c2O[C@H]1CN(C)Cc1ccc(Oc2ccccc2)cc1
cytotoxicity call [1]: inactive | cytotoxicity call [2]: inactive | growth inhibition call [3]: inactive

Nc1nnc2n1CCS2
cytotoxicity call [1]: inactive | cytotoxicity call [2]: inactive | growth inhibition call [3]: inactive

Cc1noc(C)c1NC(=O)Nc1ccc2c(c1)C(=O)N([C@H](C)CO)C[C@@H](C)[C@H](CN(C)CC1CCCCC1)OCCCC[C@@H](C)O2
cytotoxicity call [1]: inactive | cytotoxicity call [2]: inactive | growth inhibition call [3]: inactive

COc1ccc(S(=O)(=O)N2C[C@@H](O)COC[C@H]3O[C@H](CC(=O)NCCN4CCCCC4)CC[C@@H]32)cc1
cytotoxicity call [1]: inactive | cytotoxicity call [2]: inactive | growth inhibition call [3]: inactive

C[C@H](CO)N1C[C@H](C)[C@H](CN(C)S(=O)(=O)c2cn(C)cn2)Oc2c(NC(=O)Nc3ccc4c(c3)OCO4)cccc2C1=O
cytotoxicity call [1]: inactive | cytotoxicity call [2]: inactive | growth inhibition call [3]: inactive

Cc1ccc(S(=O)(=O)N(C)C[C@H]2OCCCC[C@H](C)Oc3ccc(NC(=O)Cc4ccccc4)cc3C(=O)N([C@@H](C)CO)C[C@@H]2C)cc1
cytotoxicity call [1]: inactive | cytotoxicity call [2]: active | growth inhibition call [3]: inactive

C[C@H](CO)N1C[C@H](C)[C@@H](CN(C)S(C)(=O)=O)Oc2cc(C#Cc3ccc(F)cc3)ccc2S1(=O)=O
cytotoxicity call [1]: inactive | cytotoxicity call [2]: inactive | growth inhibition call [3]: inactive

C[C@H](CO)N1C[C@H](C)[C@H](CN(C)Cc2ccc(C(=O)O)cc2)OCCCC[C@H](C)Oc2ccc(NC(=O)Nc3ccccc3)cc2C1=O
cytotoxicity call [1]: inactive | cytotoxicity call [2]: inactive | growth inhibition call [3]: inactive

C[C@H](CO)N1C[C@H](C)[C@H](CN(C)Cc2ccc(-c3ccccc3)cc2)Oc2c(NC(=O)c3ccc(-c4nccs4)cc3)cccc2C1=O
cytotoxicity call [1]: inactive | cytotoxicity call [2]: inactive | growth inhibition call [3]: inactive

CC(C)NC(=O)N[C@H]1C=C[C@@H](CC(=O)NCCN2CCCC2)O[C@H]1CO
cytotoxicity call [1]: inactive | cytotoxicity call [2]: inactive | growth inhibition call [3]: inactive

O=C(C[C@@H]1C=C[C@@H](NC(=O)c2cccnc2)[C@H](CO)O1)NCc1ccncn1
cytotoxicity call [1]: inactive | cytotoxicity call [2]: inactive | growth inhibition call [3]: inactive

C[C@@H]1CCCCO[C@@H](CN(C)C(=O)Nc2ccccc2)[C@H](C)CN([C@H](C)CO)C(=O)c2cc(NC(=O)Nc3cccc4ccccc34)ccc2O1
cytotoxicity call [1]: inactive | cytotoxicity call [2]: inactive | growth inhibition call [3]: inactive

COc1cccc(NC(=O)C[C@H]2CC[C@@H]3[C@@H](COc4ccc(NC(=O)C5CCOCC5)cc4C(=O)N3C)O2)c1
cytotoxicity call [1]: inactive | cytotoxicity call [2]: inactive | growth inhibition call [3]: inactive

C[C@@H]1CCCCO[C@@H](CN(C)C(=O)Nc2ccc3c(c2)OCO3)[C@H](C)CN([C@H](C)CO)C(=O)c2cc(NC(=O)c3ccncc3)ccc2O1
cytotoxicity call [1]: inactive | cytotoxicity call [2]: inactive | growth inhibition call [3]: inactive

O=C(C[C@H]1CC[C@@H]2[C@H](COC[C@H](O)CN2CC2CCOCC2)O1)N1CCOCC1
cytotoxicity call [1]: inactive | cytotoxicity call [2]: inactive | growth inhibition call [3]: inactive

Cc1noc(C)c1NC(=O)N(C)C[C@H]1Oc2ccc(NS(=O)(=O)c3cn(C)cn3)cc2CC(=O)N([C@@H](C)CO)C[C@@H]1C
cytotoxicity call [1]: inactive | cytotoxicity call [2]: inactive | growth inhibition call [3]: inactive

Cc1ccc(S(=O)(=O)Nc2ccc3c(c2)C(=O)N([C@H](C)CO)C[C@H](C)[C@H](CN(C)C(=O)NC2CCCCC2)OCCCC[C@H](C)O3)cc1
cytotoxicity call [1]: inactive | cytotoxicity call [2]: inactive | growth inhibition call [3]: inactive

O=C(N[C@H](c1ccc2ccccc2n1)c1cccs1)C1CCN(Cc2cccc(C(F)(F)F)c2)CC1
cytotoxicity call [1]: inactive | cytotoxicity call [2]: inactive | growth inhibition call [3]: inactive

C[C@@H]1CN([C@@H](C)CO)C(=O)c2cc(NC(=O)Nc3ccccc3)ccc2O[C@@H](C)CCCCO[C@@H]1CN(C)C(=O)Nc1ccc2c(c1)OCO2
cytotoxicity call [1]: inactive | cytotoxicity call [2]: inactive | growth inhibition call [3]: inactive

C[C@@H]1CN([C@H](C)CO)S(=O)(=O)c2ccc(C#Cc3ccccc3)cc2O[C@H]1CN(C)C(=O)CN(C)C
cytotoxicity call [1]: inactive | cytotoxicity call [2]: active | growth inhibition call [3]: inactive

COc1ccc(S(=O)(=O)N(C)C[C@H]2Oc3ncc(C#CC4(O)CCCC4)cc3C(=O)N([C@@H](C)CO)C[C@H]2C)cc1
cytotoxicity call [1]: inactive | cytotoxicity call [2]: inactive | growth inhibition call [3]: inactive

C[C@H](CO)N1C[C@H](C)[C@H](CN(C)C(=O)Nc2ccccc2)Oc2ccc(NC(=O)Nc3ccc(C(F)(F)F)cc3)cc2CC1=O
cytotoxicity call [1]: inactive | cytotoxicity call [2]: active | growth inhibition call [3]: inactive

C[C@H](CO)N1C[C@H](C)[C@H](CN(C)Cc2ccc(Oc3ccccc3)cc2)Oc2c(NC(=O)NC3CCCCC3)cccc2C1=O
cytotoxicity call [1]: inactive | cytotoxicity call [2]: active | growth inhibition call [3]: inactive
